From PubChem BioAssay AID1508642 (National Center for Advancing Translational Sciences (NCATS), 2021)
About 200 (0.47%) of roughly 43,000 compounds were called active. Inconclusive results (about 12%) are left out. The call rests on the fitted dose curve; in most records, active means well fitted cell-killing curve with a large enough effect; inconclusive means small, poorly fitted or top-dose-only effect, or effect the other way; inactive means flat fitted curve, though single readings scatter. This is one part of the list.

Assay: Cell viability qHTS assay in S16 Pmp22-F2sN cells; further: nearly all actives have a fitted effect of over 65% in size
Settings: S16 Pmp22-F2sN Schwann cells viability, CellTiter-Glo, 24 h; series mostly up to 57.5 µM; activity change, negative = cytotoxicity: at the top concentration
In short: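 S16 Pmp22-F2sN Schwann cells (500-1,000/well) in phenol-red-free DMEM with 10% FBS received 23 nL compound by pin tool for 24 h at 37 °C. Viability was then read as CellTiter-Glo luminescence after 15 min at room temperature.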
On the % scale 0 is the no-effect control and ±100 the full control effect.

Row | Compound | activity change, negative = cytotoxicity
1 | O=C1N(Cc2ccccc2Cl)c2ccccc2C1(O)c1c[nH]c2ccccc12 (stereo not drawn) | inactive: -23.4%
2 | CC1=C(C(=O)OCC2CCCCC2)C(c2ccc(Cl)cc2)CC(=O)N1 (stereo not drawn) | inactive: 15.3%
3 | COc1ccccc1NC(=O)c1oc2ccccc2c1NC(=O)COc1cccc(C)c1 | inactive: 14.1%
4 | COc1ccc(Cl)cc1NC(=O)N(C)CCc1c(C)nn(C)c1C | inactive: -4.82%
5 | CCOC(=O)c1sc2ccccc2c1S(=O)(=O)Nc1ccc(C(C)=O)cc1 | inactive: -1.37%
6 | CSc1ncc(C(=O)Nc2ccc(C)c(Cl)c2)c(-c2ccccc2)n1 | inactive: -19.8%
7 | CCc1ccc(N(CC)C(=O)Cn2nc(Cc3cccnc3)c3ccccc3c2=O)cc1 | inactive: 9.02%
8 | CCOc1ccc(NC(=O)CSc2oc(-c3ccc(F)cc3)nc2S(=O)(=O)c2ccc(C)cc2)cc1 | inactive: 1.8%
9 | COc1ccc(CNC(=O)Cn2ccc3cc(S(=O)(=O)N4CCCCC4)ccc32)cc1OC | inactive: -2.06%
10 | Cc1ccc(-n2c(=O)c3c4c(sc3n(Cc3cc(=O)n5ccccc5n3)c2=O)CCC4)cc1C | inactive: -13%
11 | Cc1ccc(CN(Cc2ccco2)C(=O)c2oc3cc(Br)ccc3c2C)cc1 | inactive: 1.99%
12 | O=C(Nc1ccc(Br)cc1F)c1cc(S(=O)(=O)NC2CCCCC2)ccc1F | inactive: -3.6%
13 | Cc1nc2nc(NC(=O)c3ccc(C(C)(C)C)cc3)[nH]n2c(=O)c1Cc1ccccc1 | inactive: -2.14%
14 | COc1ccc(-n2c(=O)c3c(c4cc(OC)ccc4n3C)n(Cc3cccc(C)c3)c2=O)cc1 | inactive: -7.29%
15 | COc1ccc2c(c1)c(=O)c(S(=O)(=O)c1ccccc1)cn2CC(=O)Nc1ccc(C)c(Cl)c1 | inactive: 10.7%
16 | COc1cccc(CNC(=O)Cn2nc(-c3ccc(Cl)cc3)ccc2=O)c1 | inactive: 20%
17 | CC1=C(C(=O)Nc2ccc(C)cc2C)C(c2cccs2)n2nc(SCc3cccc(C)c3)nc2N1 (stereo not drawn) | inactive: 3.35%
18 | CNC(=O)CSc1cn(CC(=O)N2CCCCCC2)c2ccccc12 | inactive: 0.177%
19 | CCC(C(=O)Nc1cccc(-c2nc3cccnc3s2)c1C)c1ccccc1 (stereo not drawn) | inactive: 0.0119%
20 | COc1ccc(-n2cc(C(=O)NCCc3cc(OC)ccc3OC)c3ccccc3c2=O)cc1 | inactive: 10.1%
21 | CCOC(=O)c1c(C)[nH]c(C)c1S(=O)(=O)N1CCCC(C(=O)NCc2ccc(N(C)C)cc2)C1 (stereo not drawn) | inactive: -28.3%
22 | CC(C)CC(=O)Nc1nnc(S(=O)(=O)N(C)Cc2ccc(Cl)cc2)s1 | inactive: 5.4%
23 | CC(=O)Nc1nonc1-c1nnc(SCc2ccccc2F)n1C | inactive: -1.79%
24 | CCc1ccccc1NS(=O)(=O)c1ccc2c(c1)CC(=O)N2 | inactive: 0.327%

Row | Compound | activity change, negative = cytotoxicity
25 | CCCc1nn2c(=O)cc(COC(=O)c3ccccc3NC(=O)COc3ccccc3)nc2s1 | inactive: 8.76%
26 | CCOC(=O)c1cc(S(=O)(=O)Nc2cc(F)ccc2C)[nH]n1 | inactive: -6.58%
27 | COc1ccc(-c2cc(C(F)(F)F)n3nc(-c4ccccc4)cc3n2)cc1OC | inactive: 0.592%
28 | CCc1ccc(NC(=O)Cn2c(=O)n(CCC(C)C)c(=O)c3cccnc32)cc1 | inactive: 6.39%
29 | CCCCSc1nnc2n(-c3ccc(OC)cc3)c(=O)c3c4c(sc3n12)COC(C(C)C)C4 (stereo not drawn) | inactive: -20.4%
30 | Cc1ccc(/C=C/c2onc(C)c2S(=O)(=O)N2CCC(C(=O)Nc3ccccc3C(F)(F)F)CC2)cc1 | inactive: 9.69%
31 | CC(=O)c1ccc(N2CCN(c3ncnc4c3c(-c3ccccc3)cn4-c3ccc(Cl)cc3)CC2)cc1 | inactive: -1.7%
32 | Cc1oc(-c2cccc(Cl)c2)nc1CS(=O)(=O)CC(=O)NC(C)CCc1ccccc1 (stereo not drawn) | inactive: 3.54%
33 | CCCCN(CC)C(=O)c1nn(C)c2c1CSc1ccccc1-2 | inactive: -1.89%
34 | CC(=O)c1cccc(NC(=O)CSc2nc(=O)n(Cc3ccco3)c3c2CCC3)c1 | inactive: -6.28%
35 | O=C(CSc1ccc(-c2cccs2)nn1)Nc1ccccc1C(F)(F)F | inactive: -11.1%
36 | Cc1ccccc1CNC(=O)C(C)N(c1ccccc1)S(C)(=O)=O (stereo not drawn) | inactive: 4.67%
37 | Cc1ccc(NC(=O)C2CCCN(C(=O)c3cnn(-c4ccc(F)cc4)c3-n3cccc3)C2)c(Cl)c1 (stereo not drawn) | inactive: -5.66%
38 | CC1(C)O[C@H]2[C@@H](O1)[C@@H](C(=O)Nc1ccccc1C(F)(F)F)O[C@@H]1OC(C)(C)O[C@@H]12 | inactive: 27.2%
39 | O=C(CCC1N=C2c3ccccc3N=C(SCc3ccc(F)cc3)N2C1=O)NCCc1ccccc1 (stereo not drawn) | inactive: 2.6%
40 | CCOC(=O)N1CCN(C(=O)CN(c2ccccc2F)S(=O)(=O)c2ccc(C)cc2)CC1 | inactive: 18.1%
41 | Cc1cc(N2CCC(C)CC2)nc2ccc(NC(=O)Cc3c(F)cccc3Cl)cc12 | inactive: 26%
42 | Cc1ccc(Cn2cc(S(=O)(=O)c3cccc(Cl)c3)c(=O)c3cc(F)c(N4CCCCC4)cc32)cc1 | inactive: 8.15%
43 | CCc1ccc(NC(=O)CN(c2ccc(Cl)cc2)S(=O)(=O)c2ccsc2C(=O)OC)cc1 | inactive: -25%
44 | CCOc1ccc(NC(=O)c2c(NCc3cccc(OC)c3OC)sc3c2CCC3)cc1 | inactive: 11.7%
45 | Nc1c(C(=O)Nc2ccccc2Cl)c2ccccn2c1C(=O)c1ccccc1 | inactive: -4.6%
46 | COc1ccc(OC)c(CNC(=O)c2ccc3c(c2)c(C)c(C)n3Cc2ccc(Cl)cc2)c1 | inactive: -7.05%
47 | Cc1ccc(C)c(CN2C(=O)C(O)(c3c(C)[nH]c4ccccc34)c3ccccc32)c1 (stereo not drawn) | inactive: -10.2%
48 | CCOC(=O)c1noc2nc(C)n(CC(=O)NC(C)CC)c(=O)c12 (stereo not drawn) | inactive: -15.8%

Row | Compound | activity change, negative = cytotoxicity
49 | O=C(NCc1cccs1)c1ccc2c(c1)N(Cc1cccc(F)c1)C(=O)c1ccccc1S2 | inactive: -0.375%
50 | Cc1cc(C)cc(NC(=O)CSc2nc(=O)n(CCN3CCOCC3)c3c2CCC3)c1 | inactive: 9.62%
51 | Cc1ccc(Cl)cc1NC(=O)CSc1nccn1C | inactive: 0.329%
52 | COC(=O)c1c(NC(=O)Cc2coc3cc(C)ccc23)sc2c1CCC2 | inactive: -3.25%
53 | CCOc1ccc(NS(=O)(=O)c2ccc(C(=O)N(C)C)s2)cc1 | inactive: -1.95%
54 | O=C(c1cccc(Cl)c1)N1c2nc(-c3ccco3)nn2C2(CCCCC2)[C@@H]2CCCC[C@@H]21 | inactive: 3.68%
55 | COc1ccc(CCNC(=O)CCCCn2c(=O)c3ccccc3n(CC(=O)Nc3c(C)cccc3C)c2=O)cc1OC | inactive: 16.1%
56 | C#CCn1c(=NC(=O)c2ccc3c(c2)OCCO3)sc2cc(OC)c(OC)cc21 | inactive: 2.94%
57 | O=C(CCSCc1cccc(Cl)c1)N1CCN(c2ccc(Cl)cc2)CC1 | inactive: 11.2%
58 | Cc1ccccc1C(=O)N1CC(=O)Nc2ccc(Cl)cc2C1c1ccccc1 (stereo not drawn) | inactive: 1.11%
59 | COC(=O)c1scc(-c2ccc(C)cc2)c1S(=O)(=O)N1CCN(c2ccccc2)CC1 | inactive: 18.1%
60 | COc1cccc(NC(=O)CC(=O)Nc2ccc3nc4n(c(=O)c3c2)CCCCC4)c1 | inactive: 6.4%
61 | COc1cc(OC)cc(N2C(=O)N(Cc3ccc(C(C)(C)C)cc3)c3ccccc3S2(=O)=O)c1 | inactive: -0.808%
62 | COc1ccc(S(=O)(=O)N2CCC(C(=O)Nc3ccccc3)CC2)cc1OC | inactive: 1.07%
63 | CCOC(=O)c1c(C)[nH]c(C)c1S(=O)(=O)NCC(=O)Nc1cccc(C#N)c1 | inactive: -6.72%
64 | Cc1sc2ncn(CC(=O)Nc3ccc(C(C)C)cc3)c(=O)c2c1S(=O)(=O)N1CCN(c2ncccn2)CC1 | inactive: 17.6%
65 | COc1ccc2c(c1)sc1ncc(C(=O)NCc3ccccc3F)c(=O)n12 | inactive: 6.66%
66 | COc1ccc(S(=O)(=O)Nc2ccc3oc4c(c3c2)CCCC4)cc1 | inactive: 0.969%
67 | CC1(C)N=C(SCc2ccccc2Cl)c2ccccc2N1 | inactive: -18.4%
68 | Cc1ccc(S(=O)(=O)c2nnn3c2nc(NC(C)C)c2cc(Cl)ccc23)cc1C | inactive: 5.04%
69 | Cc1cccc(-c2noc(-c3cccnc3NCc3ccc(Cl)cc3)n2)c1 | inactive: 6.92%
70 | CCCCNC(=O)CSc1nc2n[nH]c(C)c2c(=N)n1-c1cccc(Cl)c1C | inactive: -24.5%
71 | COc1cccc(NC(=O)/C(C#N)=C/c2c(C)n(Cc3ccc(Cl)cc3)c3ccccc23)c1 | inactive: -9.74%
72 | COc1ccc(CCn2c3c(c(=O)[nH]c2=O)C(NC(=O)c2ccc(C(C)(C)C)cc2)(C(F)(F)F)C(=O)N3)cc1OC (stereo not drawn) | inactive: 8.8%

Row | Compound | activity change, negative = cytotoxicity
73 | CC(=O)c1cc(-c2ccc(F)cc2)n(CC(=O)Nc2cc(C)cc(C)c2)c1C | inactive: 12%
74 | COc1ccccc1Cc1nc2ccccc2nc1SCC(=O)N1CCN(c2ccccc2)CC1 | inactive: -3.12%
75 | Cc1cc2nc(-c3ccc(NC(=O)c4cc5ccccc5o4)cc3)oc2cc1C | inactive: -0.614%
76 | CCOc1ccc(Nc2nc3c(S(=O)(=O)c4ccc(C(C)C)cc4)nnn3c3ccsc23)cc1 | inactive: 5.11%
77 | O=C(NCc1ccco1)c1ccc2c(c1)N(Cc1ccc(Cl)cc1)C(=O)c1ccccc1S2 | inactive: -17.2%
78 | COc1ccc(CCNC(=O)CCn2c(=O)c3ccccc3n(Cc3ccccc3)c2=O)cc1OC | inactive: 5.6%
79 | CC(C)c1nn2c(=O)cc(COC(=O)c3ccccc3NC(=O)c3cccc(Cl)c3)nc2s1 | inactive: 19.5%
80 | COc1cc(OC)c(NS(=O)(=O)c2c(C(=O)N3CCC(C)CC3)c(C)n(C)c2C)cc1Cl | inactive: 5%
81 | Cc1nnc(NC(=O)CSCc2cc(=O)c3ccccc3[nH]2)s1 | inactive: -16%
82 | COc1ccc(CCNC(=O)C(C)n2c(=O)cc(C(F)(F)F)c3c(C)nn(C)c32)cc1OC (stereo not drawn) | inactive: 22.4%
83 | Cc1cc(C)cc(Oc2nc3c(C)cccn3c(=O)c2/C=C(\C#N)c2nc3ccccc3s2)c1 | inactive: 3.99%
84 | COc1ccc(N2CCN(Cc3nnc(-c4cccc(Br)c4)o3)CC2)cc1 | inactive: 1.24%
85 | CCS(=O)(=O)N1CC(=O)N(c2ccc(Cl)cc2)C(C)(C(=O)NC2CCCCCC2)C1 (stereo not drawn) | inactive: 3.54%
86 | Cc1nc2ccn(Cc3cccnc3)c(=O)c2cc1C(=O)N1CCN(c2ccc(F)cc2)CC1 | inactive: -4.94%
87 | COC(=O)c1ccccc1NC(=O)c1cnc2c(-c3cccc(C)c3)c(C)nn2c1C | inactive: 0.423%
88 | Cc1ccc2oc(=O)c(S(=O)(=O)c3ccc(C(C)(C)C)cc3)cc2c1 | inactive: -1.72%
89 | CN(C)c1ccc(CNC(=O)CN2CCSc3ccc(S(=O)(=O)N(C)C)cc32)cc1 | inactive: -0.0239%
90 | COc1ccc(OC)c2sc(N(Cc3cccnc3)C(=O)c3ccco3)nc12 | inactive: -2.98%
91 | CCc1ccccc1NC(=O)Nc1nnc(N(CC)c2ccccc2)s1 | inactive: 7.18%
92 | Cc1ccc(CNC(=O)c2cc(-c3ccc(Cl)cc3)on2)cc1 | inactive: -0.682%
93 | CC(C)(C)c1ccc(C(=O)Nc2sc3c(c2C#N)CCC(C(C)(C)C)C3)cc1 (stereo not drawn) | inactive: -0.148%
